Results reported in the supplement of paper PMC4967469.
pIC50: −log10 of the molar value. The IC50 comes from the fitted curve, where viability falls to half of the control; a limit (>, <) means that the fit lies beyond the doses tested. AUC is the area under the same curve over the 256-fold range up to the top dose, as a fraction; the more sensitive the line, the further below 1. A top dose marked as inferred comes from the curve model; the source does not state it. For part of these data: An entry number marks a drug with two screens in the source, which often give different values.

How the values were obtained:
Experiment in all cases: Viability of human cancer cell lines after 72 h of drug (GDSC screen)
AZD6482 = compound: Cc1cc([C@@H](C)Nc2ccccc2C(=O)O)c2nc(N3CCOCC3)cc(=O)n2c1 [AZD6482]
Experimental: (§1)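 Human cancer cell lines in 384-well plates, medium with 10% serum, drug for 72 h over a 256-fold dose range (nine 2-fold or five 4-fold steps up to the top dose). Adherent lines were fixed and stained with the nucleic acid dye Syto60, suspension lines read with resazurin; signal relative to control wells, capped at 0 and 100%. One two-parameter sigmoid per drug and line, fitted in a mixed model over all curves with the slope shared within a line.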

XMD11-85h = compound: COc1cc(C(=O)NC2CCN(C)CC2)ccc1Nc1ncc2c(n1)N(C1CCCC1)CCC(=O)N2C(C)C [XMD11-85h]; details: top dose 10 µM; top dose inferred
Experimental: as §1

BMN-673 = compound: Cn1ncnc1[C@H]1c2n[nH]c(=O)c3cc(F)cc(c23)N[C@@H]1c1ccc(F)cc1 [BMN-673]; details: top dose 10 µM; top dose inferred
Experimental: as §1

[1] = top dose 5 µM, screen: GDSC drug entry 1066, top dose inferred
[2] = top dose 5.12 µM, screen: GDSC drug entry 156

Row | Cell Line | AUC (AZD6482; [1]) | pIC50 (AZD6482; [1]) | AUC (AZD6482; [2]) | pIC50 (AZD6482; [2]) | AUC (XMD11-85h) | pIC50 (XMD11-85h) | AUC (BMN-673) | pIC50 (BMN-673)
1 | NOS-1 (osteosarcoma, adherent) | 0.683 | 5.94 | 0.907 | < 5.29 | 0.862 | < 5.00 | 0.901 | < 5.00
2 | RCC-JW (kidney, adherent) | 0.616 | 6.18 | – | – | 0.967 | < 5.00 | 0.573 | 6.00
3 | H2722 (mesothelioma, adherent) | 0.941 | < 5.30 | 0.933 | < 5.29 | 0.934 | < 5.00 | 0.925 | < 5.00
4 | GRANTA-519 (B-cell lymphoma, suspension) | 0.919 | < 5.30 | 0.981 | < 5.29 | 0.99 | < 5.00 | 0.893 | 5.01
5 | PL4 (pancreas, adherent) | 0.953 | < 5.30 | 0.963 | < 5.29 | 0.969 | < 5.00 | 0.863 | 5.04
6 | C2BBe1 (large intestine, adherent) | 0.883 | < 5.30 | 0.885 | < 5.29 | 0.968 | < 5.00 | 0.903 | < 5.00
7 | NCI-H650 (lung adenocarcinoma, adherent) | 0.96 | < 5.30 | 0.934 | < 5.29 | 0.979 | < 5.00 | 0.772 | 5.37
8 | D-247MG (glioma, adherent) | 0.897 | < 5.30 | 0.796 | 5.46 | 0.964 | < 5.00 | 0.836 | < 5.00
9 | RH-1 (rhabdomyosarcoma, adherent) | 0.971 | < 5.30 | 0.992 | < 5.29 | 0.966 | < 5.00 | 0.203 | 7.00
10 | KP-N-YN (neuroblastoma, adherent) | – | – | 0.98 | < 5.29 | 0.92 | < 5.00 | 0.982 | < 5.00
11 | CAL-27 (head and neck, adherent) | 0.943 | < 5.30 | 0.877 | < 5.29 | 0.907 | < 5.00 | 0.696 | 5.65
12 | UACC-893 (breast, adherent) | 0.703 | 5.84 | 0.773 | 5.57 | 0.978 | < 5.00 | 0.961 | < 5.00
13 | TYK-nu (ovary, adherent) | 0.925 | < 5.30 | 0.985 | < 5.29 | 0.929 | < 5.00 | 0.471 | 6.29
14 | HuO9 (osteosarcoma, adherent) | 0.856 | 5.33 | 0.743 | 5.76 | 0.923 | < 5.00 | 0.666 | 5.72
15 | NY (osteosarcoma, adherent) | 0.95 | < 5.30 | 0.909 | < 5.29 | 0.976 | < 5.00 | 0.882 | < 5.00
16 | SW948 (large intestine, adherent) | 0.971 | < 5.30 | 0.981 | < 5.29 | 0.98 | < 5.00 | 0.98 | < 5.00
17 | ES6 (Ewing sarcoma, adherent) | 0.949 | < 5.30 | 0.849 | < 5.29 | 0.962 | < 5.00 | 0.914 | < 5.00

Row | Cell Line | AUC (AZD6482; [1]) | pIC50 (AZD6482; [1]) | AUC (AZD6482; [2]) | pIC50 (AZD6482; [2]) | AUC (XMD11-85h) | pIC50 (XMD11-85h) | AUC (BMN-673) | pIC50 (BMN-673)
18 | WM35 (melanoma, adherent) | – | – | 0.896 | < 5.29 | 0.932 | < 5.00 | 0.889 | < 5.00
19 | NB7 (neuroblastoma, adherent) | 0.897 | < 5.30 | 0.849 | 5.39 | 0.927 | < 5.00 | 0.913 | < 5.00
20 | DoTc2-4510 (cervix, adherent) | 0.974 | < 5.30 | 0.892 | < 5.29 | 0.969 | < 5.00 | 0.867 | 5.08
21 | D-566MG (glioma, adherent) | 0.777 | 5.70 | – | – | 0.968 | < 5.00 | 0.465 | 6.30
22 | LNCaP-Clone-FGC (prostate, adherent) | 0.796 | 5.56 | 0.722 | – | 0.928 | < 5.00 | 0.685 | 5.65
23 | HT-115 (large intestine, adherent) | 0.984 | < 5.30 | 0.975 | < 5.29 | 0.989 | < 5.00 | 0.972 | < 5.00
24 | BICR10 (head and neck, adherent) | 0.947 | < 5.30 | 0.848 | 5.33 | 0.945 | < 5.00 | 0.843 | 5.06
25 | LB1047-RCC (kidney, adherent) | 0.906 | < 5.30 | 0.873 | < 5.29 | 0.929 | < 5.00 | 0.593 | 5.94
26 | SK-MG-1 (glioma, adherent) | 0.862 | 5.36 | – | – | 0.976 | < 5.00 | 0.843 | 5.14
27 | H2803 (mesothelioma, adherent) | 0.926 | < 5.30 | 0.959 | < 5.29 | 0.933 | < 5.00 | 0.842 | 5.06
28 | VMRC-MELG (melanoma, adherent) | 0.84 | 5.43 | 0.874 | < 5.29 | 0.988 | < 5.00 | 0.948 | < 5.00
29 | RCC-FG2 (kidney, adherent) | 0.386 | 6.86 | – | – | 0.968 | < 5.00 | 0.89 | < 5.00
30 | RCC-ER (kidney, adherent) | 0.94 | < 5.30 | – | – | 0.922 | < 5.00 | 0.822 | 5.17
31 | SK-N-AS (neuroblastoma, adherent) | 0.972 | < 5.30 | 0.979 | < 5.29 | 0.982 | < 5.00 | 0.855 | 5.00
32 | NCI-H1781 (lung adenocarcinoma, adherent) | 0.952 | < 5.30 | 0.983 | < 5.29 | 0.988 | < 5.00 | 0.244 | 6.94
33 | MC-CAR (haematopoietic neoplasm, suspension) | 0.842 | 5.53 | 0.88 | 5.36 | 0.907 | < 5.00 | 0.825 | 5.29
